Laboratory results: PMC11960969, “Mdga2 deficiency leads to an aberrant activation of BDNF/TrkB signaling that underlies autism-relevant synaptic and behavioral changes in mice” (PLOS Biology, 2025)
No constants are given. Whether binding was seen depends on the method and setting. For some assays here: Binding seen in cells or lysates may run through a third protein. Some binding calls cover weakened binding; strength is not graded here. For some assays here: Tags and fused reporters may be left off the sequences shown.

The chains behind the UniProt entries cited, without tags or fusion partners. Residues count along the entry.
UniProt P15209, residues 32-821: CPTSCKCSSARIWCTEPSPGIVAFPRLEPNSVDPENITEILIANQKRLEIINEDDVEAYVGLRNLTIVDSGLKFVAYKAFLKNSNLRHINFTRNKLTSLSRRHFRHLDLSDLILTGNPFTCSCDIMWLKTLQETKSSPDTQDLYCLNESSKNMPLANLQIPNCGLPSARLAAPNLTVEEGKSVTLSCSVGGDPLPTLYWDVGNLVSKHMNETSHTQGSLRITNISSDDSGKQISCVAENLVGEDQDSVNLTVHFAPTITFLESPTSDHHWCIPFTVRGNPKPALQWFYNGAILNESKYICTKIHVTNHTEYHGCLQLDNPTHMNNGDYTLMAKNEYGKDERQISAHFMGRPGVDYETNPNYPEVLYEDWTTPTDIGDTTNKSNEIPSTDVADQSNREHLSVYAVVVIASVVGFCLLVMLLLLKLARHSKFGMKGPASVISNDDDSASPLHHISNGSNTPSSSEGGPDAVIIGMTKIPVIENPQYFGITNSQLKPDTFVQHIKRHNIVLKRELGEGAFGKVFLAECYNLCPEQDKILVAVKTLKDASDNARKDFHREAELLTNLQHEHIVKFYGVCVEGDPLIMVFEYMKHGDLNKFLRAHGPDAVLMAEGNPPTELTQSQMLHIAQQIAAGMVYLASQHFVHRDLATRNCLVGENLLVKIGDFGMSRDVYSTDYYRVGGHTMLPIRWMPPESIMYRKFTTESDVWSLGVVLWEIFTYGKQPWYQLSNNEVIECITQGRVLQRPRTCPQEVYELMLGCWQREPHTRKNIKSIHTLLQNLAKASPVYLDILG
UniProt Q99K10, residues 46-843: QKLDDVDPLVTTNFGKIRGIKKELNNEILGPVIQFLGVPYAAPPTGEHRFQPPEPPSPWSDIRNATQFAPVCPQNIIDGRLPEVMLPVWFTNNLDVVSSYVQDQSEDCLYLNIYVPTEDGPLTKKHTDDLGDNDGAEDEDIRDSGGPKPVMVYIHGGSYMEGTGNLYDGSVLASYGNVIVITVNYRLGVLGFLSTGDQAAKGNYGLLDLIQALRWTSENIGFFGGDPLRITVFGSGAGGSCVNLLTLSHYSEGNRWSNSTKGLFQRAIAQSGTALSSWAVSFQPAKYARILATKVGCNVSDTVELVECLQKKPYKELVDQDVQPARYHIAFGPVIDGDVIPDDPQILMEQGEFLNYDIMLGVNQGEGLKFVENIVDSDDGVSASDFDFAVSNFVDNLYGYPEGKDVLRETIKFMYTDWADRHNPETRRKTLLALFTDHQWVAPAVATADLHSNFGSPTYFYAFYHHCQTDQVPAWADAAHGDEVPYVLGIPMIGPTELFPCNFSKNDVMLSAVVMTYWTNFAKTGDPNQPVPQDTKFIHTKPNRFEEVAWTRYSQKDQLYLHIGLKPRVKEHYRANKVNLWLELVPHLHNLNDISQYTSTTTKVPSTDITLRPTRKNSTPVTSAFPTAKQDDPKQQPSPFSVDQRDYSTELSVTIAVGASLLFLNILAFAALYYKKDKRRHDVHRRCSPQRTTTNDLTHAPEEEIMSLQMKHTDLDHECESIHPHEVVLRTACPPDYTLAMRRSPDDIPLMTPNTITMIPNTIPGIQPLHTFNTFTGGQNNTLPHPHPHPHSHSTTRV
UniProt Q16620, residues 32-822: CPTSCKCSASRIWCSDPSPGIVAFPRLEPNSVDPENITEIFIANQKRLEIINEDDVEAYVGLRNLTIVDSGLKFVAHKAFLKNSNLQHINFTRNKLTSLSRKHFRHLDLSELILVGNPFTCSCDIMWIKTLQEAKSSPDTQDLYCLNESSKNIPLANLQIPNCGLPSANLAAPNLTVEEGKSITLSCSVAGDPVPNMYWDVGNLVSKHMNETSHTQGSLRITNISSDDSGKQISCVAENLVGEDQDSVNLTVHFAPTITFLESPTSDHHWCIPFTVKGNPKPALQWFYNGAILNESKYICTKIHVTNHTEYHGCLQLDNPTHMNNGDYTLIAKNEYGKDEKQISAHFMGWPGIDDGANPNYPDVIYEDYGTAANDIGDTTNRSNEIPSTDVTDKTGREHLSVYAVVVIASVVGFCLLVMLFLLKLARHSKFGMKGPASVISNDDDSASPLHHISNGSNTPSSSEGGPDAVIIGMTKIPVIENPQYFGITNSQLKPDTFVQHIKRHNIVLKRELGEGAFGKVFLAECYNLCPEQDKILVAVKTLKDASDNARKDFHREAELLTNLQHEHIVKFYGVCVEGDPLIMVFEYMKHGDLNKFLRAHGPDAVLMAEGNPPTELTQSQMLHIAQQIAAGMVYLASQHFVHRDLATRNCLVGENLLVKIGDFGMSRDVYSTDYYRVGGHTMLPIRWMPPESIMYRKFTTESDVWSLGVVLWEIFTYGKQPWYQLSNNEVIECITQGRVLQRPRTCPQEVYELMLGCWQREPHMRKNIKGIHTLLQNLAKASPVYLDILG

Tests used:
[1] = target: T1, MDGA2 (MAM domain containing glycosylphosphatidylinositol anchor 2), endogenous mouse (mouse (endogenous in mouse brain)) (UniProt P60755); experiment: co-IP; WT mouse brain lysates, IP with an anti-MDGA2 antibody or control IgG, immunoblot
T1 sequence: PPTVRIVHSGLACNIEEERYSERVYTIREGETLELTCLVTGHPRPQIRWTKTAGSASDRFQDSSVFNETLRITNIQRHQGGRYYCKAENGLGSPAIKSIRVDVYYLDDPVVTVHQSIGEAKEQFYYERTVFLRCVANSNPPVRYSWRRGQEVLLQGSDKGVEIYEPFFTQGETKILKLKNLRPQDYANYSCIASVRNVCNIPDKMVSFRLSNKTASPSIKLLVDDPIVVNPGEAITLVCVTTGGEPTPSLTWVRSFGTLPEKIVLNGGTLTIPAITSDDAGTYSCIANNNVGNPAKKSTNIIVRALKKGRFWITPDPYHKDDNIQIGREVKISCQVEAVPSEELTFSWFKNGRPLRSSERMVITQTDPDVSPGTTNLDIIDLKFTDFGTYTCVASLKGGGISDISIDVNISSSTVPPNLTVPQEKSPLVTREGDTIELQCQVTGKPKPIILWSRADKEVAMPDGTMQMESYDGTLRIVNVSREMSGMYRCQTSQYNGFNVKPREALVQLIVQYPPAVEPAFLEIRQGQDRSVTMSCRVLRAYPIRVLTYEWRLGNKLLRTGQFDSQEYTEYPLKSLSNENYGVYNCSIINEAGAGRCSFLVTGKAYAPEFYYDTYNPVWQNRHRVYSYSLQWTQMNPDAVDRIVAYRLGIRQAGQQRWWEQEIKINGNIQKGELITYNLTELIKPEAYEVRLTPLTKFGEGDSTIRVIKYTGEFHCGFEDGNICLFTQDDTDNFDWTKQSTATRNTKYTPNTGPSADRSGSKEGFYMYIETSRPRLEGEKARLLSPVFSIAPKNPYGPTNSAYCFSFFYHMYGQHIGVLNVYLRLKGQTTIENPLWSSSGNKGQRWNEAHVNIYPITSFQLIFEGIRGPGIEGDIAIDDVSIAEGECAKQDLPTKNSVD

[2] = target: T2, biotin-labeled MDGA2-P2 peptide (aa 812-833) (human); experiment: pull-down; 1 μg biotin-conjugated peptide injected bilaterally into the hippocampus of WT mice; 24 h later hippocampal lysates precipitated with avidin beads and immunoblotted for TrkB; only the target purified
T2 sequence (peptide, biotin (position not stated)): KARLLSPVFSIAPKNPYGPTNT

[3] = target: T3, biotin-labeled MDGA2-P1 peptide (aa 787-811) (human); experiment: as above
T3 sequence (peptide, biotin (position not stated)): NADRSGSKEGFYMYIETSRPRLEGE

[4] = target: T4, GST-fused MDGA2-L1 (MDGA2 aa 746-786) (human) (UniProt Q7Z553); experiment: pull-down; purified human TrkB protein incubated with GST-fused MDGA2-L1, MDGA2-L2 or GST and pulled down with Glutathione Sepharose 4B; immunoblot; both purified
T4 sequence: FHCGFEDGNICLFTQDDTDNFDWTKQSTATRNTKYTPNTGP

| binding [1] | binding [2] | binding [3] | binding [4] | Substance |
| --- | --- | --- | --- | --- |
| binds | binds | no binding |  | TrkB (tyrosine kinase B receptor), endogenous mouse (from UniProt P15209 32-821) |
| binds |  |  |  | neuroligin 1 (NLGN1), endogenous mouse (from UniProt Q99K10 46-843) |
|  |  |  | no binding | recombinant TrkB protein (full-length human TrkB, His) (from UniProt Q16620 32-822) (receptor) |
